Measurements from PubChem BioAssay AID488969 (Vanderbilt High Throughput Screening Facility, 2010).
In all, about 110,000 compounds were measured (“z-score”: median about -0.1, highest 2% from about 2 on). The list shows a part of the results. The source made the active and inactive calls.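 The calls were made as follows: active = z-score in the third read window above 3 or below -3; inactive = the rest.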

The molecules below were run against Metabotropic glutamate receptor 8 (Rattus norvegicus) (UniProt P70579) (assay: mGluR8 Gi/Go-coupled signaling modulation – cell-based, rat, thallium flux, HTS, primary screen (AID 488969)). Details: HEK293 rat mGluR8, GIRK (G protein-gated inwardly rectifying potassium channel) thallium flux, FluoZin2; at 10 µM; stronger effect = higher value; submaximal glutamate (EC20) added with thallium.
Chain of UniProt P70579 (P70579 whole entry, looked up): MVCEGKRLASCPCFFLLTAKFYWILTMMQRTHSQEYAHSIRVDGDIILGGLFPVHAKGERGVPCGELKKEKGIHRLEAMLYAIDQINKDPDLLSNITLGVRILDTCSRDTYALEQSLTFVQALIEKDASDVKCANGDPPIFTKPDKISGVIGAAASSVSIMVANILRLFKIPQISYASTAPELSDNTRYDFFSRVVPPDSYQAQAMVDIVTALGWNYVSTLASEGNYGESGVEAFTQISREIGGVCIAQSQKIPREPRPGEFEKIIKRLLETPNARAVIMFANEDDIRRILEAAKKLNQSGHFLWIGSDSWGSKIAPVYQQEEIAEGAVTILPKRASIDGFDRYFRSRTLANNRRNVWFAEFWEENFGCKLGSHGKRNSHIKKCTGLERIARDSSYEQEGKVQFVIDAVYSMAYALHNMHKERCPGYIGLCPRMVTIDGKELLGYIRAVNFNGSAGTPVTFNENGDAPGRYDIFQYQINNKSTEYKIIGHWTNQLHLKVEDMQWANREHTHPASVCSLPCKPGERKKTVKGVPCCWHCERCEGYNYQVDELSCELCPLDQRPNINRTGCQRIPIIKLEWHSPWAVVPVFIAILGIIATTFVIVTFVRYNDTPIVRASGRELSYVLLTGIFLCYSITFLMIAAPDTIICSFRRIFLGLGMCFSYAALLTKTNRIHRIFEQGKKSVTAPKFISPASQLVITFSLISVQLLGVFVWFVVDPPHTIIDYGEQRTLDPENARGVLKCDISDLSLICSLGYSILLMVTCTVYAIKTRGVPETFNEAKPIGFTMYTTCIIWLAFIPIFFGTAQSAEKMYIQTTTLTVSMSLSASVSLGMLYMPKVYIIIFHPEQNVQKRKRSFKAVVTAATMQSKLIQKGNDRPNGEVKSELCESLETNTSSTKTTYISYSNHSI

| SMILES | z-score |
| --- | --- |
| O=C(Nc1ccc(-c2nnc3n2CCCCC3)cc1)c1cnccn1 | -0.462 |
| CCCN1Cc2cccc(C(=O)Nc3ccc(C)cc3)c2C1=O | 0.0165 |
| CCc1nc(SCC(=O)c2ccc3c(c2)OCCO3)c2ccccc2n1 | -0.802 |
| O=c1c(-c2nc3ccccc3o2)c2oc3ccccc3n2c2ccccc12 | -1.72 |
| COc1ccc(Cn2nc(C)n(N(C)c3ncc(C(F)(F)F)cc3Cl)c2=O)cc1 | -0.326 |
| COc1ccc2c(CC(=O)NCC3CCC(C(=O)O)CC3)cc(=O)oc2c1 (configuration not stated) | -0.124 |
| COc1ccc(CCNc2cc(C)nc3c(-c4ccccc4)cnn23)cc1OC | -0.299 |
| Cc1ccc(P(=O)(CO)c2ccc(C)cc2)cc1 | -0.17 |
| C=CCn1c(CCNC(=O)c2cccs2)nnc1SCC(=O)c1ccc(Cl)cc1 | -0.334 |
| CC(C)NC(=S)N=Nc1c(O)[nH]c2ccc(C(C)C)cc12 | 0.589 |
| CCCCOC(=O)c1ccc(N/C(=N\S(=O)(=O)c2ccccc2)c2ccccc2)cc1 | -0.212 |
| CC1CCN(S(=O)(=O)c2cccc(-c3nnc(-c4cccnc4)o3)c2)CC1 | -0.0658 |
| O=C(c1oc(=O)c2ccccc2c1-c1ccccc1)N1CCOCC1 | -0.111 |
| Cc1ccc(NC(=O)c2snc3c(=O)[nH]cnc23)cc1C | 0.0461 |
| CCCn1c(SCC(=O)Nc2ccc(OC)cc2)nnc1-c1ccncc1 | -0.0144 |
| O=C(c1cnn2c(C(F)(F)F)cc(-c3cccs3)nc12)N1CCN(Cc2ccccc2)CC1 | active: -3.66 |
| CCOC(=O)C(=O)Nc1nnc(Cc2ccc(OC)c(OC)c2)s1 | -0.264 |
| N#CCSc1nnc(N)s1 | 0.157 |
| CC(=O)NC(=S)Nc1ccc(NC(=O)COc2ccc(Cl)cc2Cl)cc1 | -0.0173 |
| O=C(O)Cn1nc(C(F)(F)F)c2c1CCCCC2 | -0.624 |
| CCc1ccc(CNCCNCC(C)O)cc1 (configuration not stated) | 1.85 |
| Cc1cc(C)n(-c2ccc(C(=O)N3CCc4ccccc43)cc2)n1 | 1.27 |
| CC(=O)NNc1nc(-c2ccc(NC(C)=O)cc2)cs1 | -0.0151 |

| SMILES | z-score |
| --- | --- |
| CC1CN(CCC(=O)Nc2ccc3c(c2)CCC3)CC(C)O1 (configuration not stated) | -0.034 |
| Cc1ccc(C(=O)N[C@H](C(=O)OCc2cc(=O)n3c(n2)sc2ccccc23)C(C)C)cc1 | -0.284 |
| O=C(Nc1ccc(-c2cn3ccsc3n2)cc1)C1CC1 | 0.0491 |
| COc1cc([N+](=O)[O-])ccc1N | -0.0672 |
| CCCC(=O)N(CCN(C(=O)CCC)c1ccccc1)c1ccccc1 | -0.957 |
| COc1ccc(-n2nc(C(=O)NCC(=O)Nc3ccccn3)c3ccccc3c2=O)cc1Cl | -0.298 |
| Cc1c(NC(=O)CN2CCN(C(=O)c3ccco3)CC2)c(=O)n(-c2ccccc2)n1C | -0.261 |
| CC1CCN(C(=O)CC2C(=O)Nc3c2c(=O)n(C)c(=O)n3Cc2ccccc2)CC1 (configuration not stated) | -0.499 |
| C=CCOC(=O)CCP(=O)(CCC(=O)OCC=C)c1ccccc1 | 0.407 |
| COc1ccc(NCc2nnc(SCC(=O)Nc3ccccc3OC)o2)cc1 | 0.202 |
| C=CCN1C(=O)C(CC(=O)Nc2ccc(C)cc2)SC1=Nc1c(C)n(C)n(-c2ccccc2)c1=O (configuration not stated) | 0.0539 |
| CC1Cc2nc(SCC(=O)Nc3nccs3)n(C)c(=O)c2S1 (configuration not stated) | -0.571 |
| O=C(Cn1cnc2ccccc2c1=O)Nc1ccc2c(c1)OCO2 | -0.353 |
| CC(C)c1[nH]nc2c1C(c1cccc(OC(=O)N3CCOCC3)c1)C(C#N)=C(N)O2 (configuration not stated) | -1.23 |
| Cc1cc(C)n(CC(=O)Nc2ccccc2)n1 | 0.708 |
| O=C(NC1(C(F)(F)F)NC(=O)N(C2CCCCC2)C1=O)c1cccs1 (configuration not stated) | 0.175 |
| CC1CCCN(c2nc(-c3cccnc3)nc3scc(-c4ccccc4)c23)C1 (configuration not stated) | -0.0274 |
| O=C(Nc1ccccc1)OCCNC(=O)c1cccc(Cl)c1 | 0.214 |
| Cc1noc(C)c1S(=O)(=O)N1CCC(C(=O)NCCN2CCC(C)CC2)CC1 | 1.3 |
| O=C(c1sc2cc([N+](=O)[O-])ccc2c1Cl)N1CCOCC1 | -0.116 |
| O=C(CN(C1CC1)S(=O)(=O)c1ccc(S(=O)(=O)NC2CCCCC2)cc1)Nc1ccccc1 | -1.33 |
| CC(=O)N(C)C1=C(O)c2ccccc2C(=O)C1=O | -0.0878 |
| C/C(=N\NC(=O)c1nn(C)cc1Br)c1ccncc1 | -0.273 |

| SMILES | z-score |
| --- | --- |
| Cc1cccc(C(=O)Nc2ccc(C(=O)/C=C/c3cccnc3)cc2)c1 | -0.232 |
| Cc1ccc(-c2nnn(CC(=O)N3c4ccccc4CCc4ccccc43)n2)cc1 | -0.119 |
| COC(=O)c1nn(-c2ccccc2)ccc1=O | -0.17 |
| Nc1nc(N2CCN(C(=O)c3ccco3)CC2)nc2ccccc12 | -0.159 |
| Cc1c(NC(=O)C2(c3ccccc3)CCOCC2)c(=O)n(-c2ccccc2)n1C | 0.381 |
| CCN(C(=O)CCc1nc(-c2ccccc2F)no1)c1cc(OC)ccc1OC | -0.172 |
| COc1ccc(/C=N/n2c(C)cc(C)c(C(N)=O)c2=O)cc1 | -0.0455 |
| COc1c(C)cc(Br)cc1C(=O)NCc1cccnc1 | 0.689 |
| CCCn1c(SCC(=O)c2ccc3c(c2)OCCO3)nnc1-c1ccco1 | 0.0203 |
| CCOC(=O)C1C(C(=O)OCC)C1(c1ccccc1)c1ccccc1 (configuration not stated) | 0.164 |
| CC1(C)SC(=S)N(NC(=O)Nc2ccccc2)C1N(O)C(=O)Nc1cccc2ccccc12 (configuration not stated) | 0.0402 |
| Cc1ccc(CN2C(=O)CCC2C(=O)NC2CC2)cc1 (configuration not stated) | 1.03 |
| COc1ccc(C(CNC(=O)c2cc(C)oc2C)N2CCOCC2)cc1 (configuration not stated) | 0.0164 |
| CSc1nc2ccc(S(=O)(=O)N3CCc4ccccc43)cc2s1 | -0.0505 |
| C/C(=N\NC(=O)c1ccccc1)c1ccc2c(c1)OCO2 | -0.195 |
| CN(Cc1nc(-c2cccnc2)no1)S(=O)(=O)c1ccc(Br)cc1 | 0.309 |
| O=c1c([N+](=O)[O-])cc(C(F)(F)F)cn1Cc1cccc(Cl)c1 | -0.172 |
| Cc1noc(C)c1COC(=O)c1ccc(-c2nc3ccccc3s2)s1 | 0.398 |
| COc1ccccc1C(=O)NCC(=O)n1nc(C)cc1C | -0.514 |
| Cc1ccc(-c2cc(C(F)(F)F)n3ncc(C(=O)NCc4ccco4)c3n2)cc1 | -0.234 |
| Cc1cccn2c(=O)c(/C=C(\C#N)S(=O)(=O)c3ccccc3)c(N3CCC(C(N)=O)CC3)nc12 | -0.378 |
| Cc1ccccc1-n1c(C)nnc1SCc1nc2ccccc2s1 | -0.699 |
| COc1ccc(CCNc2oc(COc3ccccc3)nc2C#N)cc1 | -0.509 |

| SMILES | z-score |
| --- | --- |
| COc1nc(C)ccc1-c1noc(-c2ccncc2)n1 | 0.588 |
| O=C(Nc1ccn(Cc2c(F)c(F)cc(F)c2F)n1)c1ccc(COc2ccccc2Cl)cc1 | 0.00499 |
| COc1ccc(-c2c3c([nH]c(=S)c2C#N)CCC3)cc1 | 2.17 |
| Cn1c(=O)[nH]c(=O)c2c1nc(NCCCO)n2Cc1ccc(F)cc1 | 0.293 |
| CN(C)C(=O)COC(=O)/C=C/c1ccccc1[N+](=O)[O-] | -0.0224 |
| O=C(Cc1coc2ccc3ccccc3c12)Nc1nccs1 | 0.229 |
| CCNC(=O)C1(c2ccccc2)CCCC1 | 0.12 |
| O=C(CSc1nnc(-c2cnccn2)n1Cc1ccco1)c1ccccc1 | 2.15 |
| CC(C)CC1NC(=S)N(Cc2ccccc2)C1=O (configuration not stated) | -0.2 |
| Cc1ccc(-n2c(N)c(C(=O)N3CCN(C)CC3)sc2=S)cc1 | 0.948 |
| C=C(C)C1Cc2cc3ccc(=O)oc3cc2O1 (configuration not stated) | -0.0745 |
| CN(CC(=O)Nc1nccs1)S(=O)(=O)c1ccc(F)cc1 | -0.142 |
| CC(C)(CO)NCc1ccccc1OCC(=O)Nc1ccccc1 | -0.32 |
| c1ccc(-c2ccn3nnnc3n2)cc1 | -0.244 |
| COc1ccc(Cn2ccc(=O)c(Cc3c(Cl)cccc3Cl)c2C)cc1 | -0.201 |
| COCCNc1nc(SCC(=O)N2CCN(c3ccccc3)CC2)nc2ccccc12 | 0.367 |
| CC(O)C(=O)NCCOCCOCCNC(=O)C(C)O (configuration not stated) | 0.16 |
| O=C(Cn1cc2c(n1)CCCCC2)NCc1ccccn1 | -0.195 |
| O=C(CSc1nc2[nH]ncc2c(=O)n1-c1ccccc1)c1ccc2c(c1)OCCO2 | -0.27 |
| CCCS(=O)(=O)N1CCCC(C(=O)NCCN(CC)CC)C1 (configuration not stated) | -0.0442 |
| CC(=O)Nc1ccc(S(=O)(=O)N2CCN(c3ccc(C)c(Cl)c3)CC2)cc1 | 0.603 |
| Cc1ccc(C(=O)NC2CCCCC2)cc1 | -0.337 |
| CN(C)/C=C(\C#N)C(=O)c1cccnc1Oc1cccc(F)c1 | -0.18 |

| SMILES | z-score |
| --- | --- |
| CCOC(=O)c1cnc2ccc(OCC)cc2c1NCc1cccnc1 | -0.269 |
| COc1ccc(CCNC(=O)C2CC(=O)N(c3ccccc3)C2)cc1OC (configuration not stated) | 0.172 |
| CSCC[C@H](NC(=O)NCc1cccs1)C(=O)O | 0.0281 |
| Cc1c(CN(C)C)c2c(n1Cc1ccccc1)C(=O)c1ccc(Br)cc1-2 | 0.566 |
| COC(=O)c1ccc(CSc2ccc3nnc(-c4ccccc4)n3n2)o1 | -2.69 |
| COCCN1C(=O)C(O)=C(C(C)=O)C1c1ccc(OC)c(OC)c1 (configuration not stated) | 0.251 |
| COc1cc(Cl)c(C)cc1NC(=O)CSc1cc(Cl)ccc1Cl | -0.433 |
| COc1ccc(-c2nn(-c3ccccc3)cc2/C=N/NS(=O)(=O)c2ccccc2)cc1 | -0.494 |
| CCc1nc(NCc2ccco2)c2oc3ccccc3c2n1 | -0.48 |
| O=C(CCn1c(SCC(=O)NCc2ccco2)nc2ccccc2c1=O)NCCc1ccccc1 | -0.323 |
| Cc1ccc2[nH]c(=O)c(CN(CCCN(C)C)C(=O)Nc3ccc(Cl)cc3)cc2c1 | -0.611 |
| COc1cc(/C=C(/C#N)c2nc3ccccc3[nH]2)ccc1OCC(=O)Nc1ccccc1C(C)C | 0.123 |
| CCOC(=O)COn1c(=O)c(C)[n+]([O-])c2ccccc21 | 0.0302 |
| FC(F)(F)c1cccc(N2CCN(c3nnnn3-c3ccccc3)CC2)c1 | 0.703 |
| CCCc1nc(SCC(=O)N2CCc3ccccc3C2)c2ccccc2n1 | -0.569 |
| CCCCC(=O)Nc1ccc(C)c(O)c1 | 0.0987 |
| OCCn1c(CSc2nnc(-c3ccco3)n2-c2ccccc2)nc2ccc(Cl)cc21 | -0.775 |
| c1ccc(Oc2nc(N3CCOCC3)nc(N3CCOCC3)n2)cc1 | 0.259 |
| Cc1cc(=O)oc(C)c1C(=O)N1CCc2c([nH]c3ccccc23)C1C(C)C (configuration not stated) | 0.122 |
| Cn1cc(SCC(=O)Nc2nccs2)c2ccccc21 | 1.18 |
